Laboratory results as given in the supplement of paper PMC3334620.
In all, about 33,000 sequences were measured (“E-score (-0.5 to 0.5)”: median about -0.035, highest 2% from about 0.35 on). This is one part of the list.

What follows are sequences tested against T1, Pdr3 (UniProt P33200) (assay: PBM E-score (8-mer binding enrichment) (E-score (-0.5 to 0.5)); higher = stronger / more preferred TF binding; most listed sequences are background and not binding sites). Conditions: protein concentration: 200 nM; construct: GST-full length.
T1 sequence: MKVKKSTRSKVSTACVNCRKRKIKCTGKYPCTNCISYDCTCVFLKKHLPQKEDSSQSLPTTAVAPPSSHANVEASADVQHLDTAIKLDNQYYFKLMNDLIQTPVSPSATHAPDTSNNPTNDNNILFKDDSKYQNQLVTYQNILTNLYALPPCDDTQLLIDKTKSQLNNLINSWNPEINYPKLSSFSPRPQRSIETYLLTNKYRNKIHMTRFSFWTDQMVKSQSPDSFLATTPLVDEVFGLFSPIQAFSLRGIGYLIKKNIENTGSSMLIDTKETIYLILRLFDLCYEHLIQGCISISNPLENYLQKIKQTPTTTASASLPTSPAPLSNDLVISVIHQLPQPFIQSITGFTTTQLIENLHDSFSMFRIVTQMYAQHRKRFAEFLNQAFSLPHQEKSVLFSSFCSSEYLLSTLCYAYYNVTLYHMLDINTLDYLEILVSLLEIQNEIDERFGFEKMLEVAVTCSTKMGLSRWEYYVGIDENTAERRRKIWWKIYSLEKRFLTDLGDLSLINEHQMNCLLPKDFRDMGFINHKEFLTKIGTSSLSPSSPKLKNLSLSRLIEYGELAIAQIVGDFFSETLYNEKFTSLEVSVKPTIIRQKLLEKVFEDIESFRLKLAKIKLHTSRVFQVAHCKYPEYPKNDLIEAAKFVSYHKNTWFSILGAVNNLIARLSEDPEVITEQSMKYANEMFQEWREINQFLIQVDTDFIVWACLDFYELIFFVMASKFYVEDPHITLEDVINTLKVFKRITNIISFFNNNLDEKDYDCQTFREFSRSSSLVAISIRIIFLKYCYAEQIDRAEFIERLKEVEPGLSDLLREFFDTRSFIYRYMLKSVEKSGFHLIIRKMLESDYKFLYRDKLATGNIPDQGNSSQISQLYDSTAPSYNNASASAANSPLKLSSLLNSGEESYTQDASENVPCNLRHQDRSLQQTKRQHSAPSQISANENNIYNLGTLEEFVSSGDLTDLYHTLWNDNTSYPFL
How it was run: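 Detection of bound protein used fluorescent anti-GST, with scans normalised by masliner. The proteins were GST-tagged yeast transcription factors applied at about 100-200 nM to universal all-10-mer Agilent arrays made double-stranded by primer extension. Each ungapped eight-base word, pooled with its reverse complement, was scored with an E-score from the Universal PBM Analysis Suite.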

Sequence	PBM E-score
ACATGGGA	0.108
GGCTTGTA	-0.195
ATTCCTGG	0.0168
GCGGCCAA	0.152
GAAGGGGA	-0.0259
ATTACTAG	-0.099
GACCGGTC	0.273
GTATGTAA	-0.0924
GACCTTCC	0.0988
CACAATTA	-0.149
ACACGGAC	0.299
CCCGTAAA	0.0769
AGGCTCCA	-0.238
CATATTAG	-0.0529
GATAAGCC	0.0243
CCGCTCCA	0.0975
ACCCACCG	0.0215
CACGCGTG	0.283
CCGATCAG	0.174
TACCCAGA	-0.034
CGTAGTTA	-0.047
ATCGGGAA	0.279
CCCCGTTC	0.223
AACCGTAC	-0.141
ACGTTAAT	0.077

Sequence	PBM E-score
CACCGAAC	-0.0653
GTAATCAC	-0.0461
AGCGCACA	0.0317
TACAGCCA	-0.0432
TTCCACAA	0.105
CGTAATAA	-0.142
ACGAGGAC	-0.0685
CGCACTAA	0.137
CGTATCGC	0.107
ATCGAAGA	0.0471
GCCCCCAC	-0.175
CTCCTCTC	-0.136
AAGGGAAT	-0.181
ACTGACAC	-0.00126
ATTCCACC	0.205
GAGCCGAA	0.228
CCTCAAGG	-0.147
TGGCGTAA	-0.263
CAAGGCAG	-0.148
AGGCGTGA	-0.279
ATGCAGGC	-0.0231
CGATCCAC	-0.0459
AAAGAGGC	-0.26
CCATCCGC	0.155
AAGTTTGT	0.0761

Sequence	PBM E-score
AACCGATC	0.069
GTCACATA	-0.051
CATCTCAC	0.011
CTCTCTCA	-0.0973
CTCCGGCC	0.0522
CACACACC	-0.00112
AAGGATTG	-0.131
ACATCGTG	-0.0397
AGCACCAA	-0.0317
AAGTACCG	0.0857
CACGCCTG	-0.342
CTGAACGA	-0.218
ATGCCGTA	-0.0431
CGCATTGC	0.0617
CGGATCAC	0.391
GCCTTACA	-0.322
AGACAGCC	-0.0779
TATACGGA	0.221
CCCTTTAA	-0.235
AAGTTCTC	0.0167
AGTAAGCG	-0.0829
CCACCGTC	0.013
TATGCTAA	-0.247
TCGTTACA	-0.214
GGTAGGGA	-0.0636

Sequence	PBM E-score
AAGGCCGG	0.328
CAAAGTTA	-0.00342
CTGGTTAC	-0.096
ATCTTAAT	-0.24
CAAGCGAA	0.00333
ATTTGGGG	0.0218
TCGGCCCA	0.124
GGCTCGGA	0.338
GAGGCGAC	-0.0756
AGCAACTA	0.092
CCTTAGTC	-0.211
AATCCATC	0.0261
CTGTAGCA	-0.251
GCTTAGAA	-0.253
CGAACGCA	0.152
GCGCCTCA	0.105
ATCGCGGC	0.213
CCATGCAG	-0.0248
ACATTTCT	0.0214
AGGGCAAC	0.0207
CACTCAAG	-0.336
AACCGGCA	0.158
AAAACAAC	-0.346
CAGGTTGA	-0.18
CCTCCATC	-0.14

Sequence	PBM E-score
CACATAGG	-0.156
AAAATAAG	-0.194
ATTGCTTC	0.00849
GCTTCTAA	-0.359
CGCAACAA	-0.0714
CCCTTAAA	-0.188
ATTTCCAG	-0.0734
CCCATATC	0.0375
CCAACCAC	0.0773
AACTCACA	0.0684
TCGGGCCA	0.093
ACTCTTTG	-0.122
ACTACCCT	-0.179
ACCCTTAA	-0.247
AGCTGCAC	-0.122
GACTCCAC	-0.13
CTAAGAAA	-0.0587
GCAGGCAC	-0.117
ACGACCGT	-0.267
AGGATCGC	-0.021
CGAGTACA	0.00133
ACCAACAC	-0.03
CCGTCCAA	0.199
AGCGTTTG	-0.168
GGGCGGGA	0.35

Sequence	PBM E-score
CGGAGTGC	0.343
ACAGGGGT	-0.294
AGCAGCAA	0.0334
AGATAGGA	-0.187
ACATCGAA	0.117
AGGAGTAG	-0.0728
CAACAAGA	-0.122
AGGACCAA	-0.0331
AACTCCAA	-0.0391
CCACCTAC	-0.303
CATAAAAG	-0.125
AGCGTGCC	0.00446
ACTGGCTA	-0.0723
CTCAGTAC	-0.183
GAGTTCCA	0.0759
CGCCCCAA	0.183
GCTGTCCC	0.0347
CGTTTCTC	-0.0328
AAAAGGAT	-0.137
GACGTCAC	-0.00811
ACCATAAC	-0.119
CCTCTGTC	-0.0785
CACGTAAA	-0.177
ACTTACAT	-0.155
AGAAACAC	-0.139

Sequence	PBM E-score
CCCGCTAC	0.105
CGAGGTCA	-0.0832
GCTCCCGA	0.136
CAAAATCA	0.0323
TCTCAAGA	-0.214
CGTATGGC	-0.115
GTCTTGGA	-0.0896
CCGCGCCC	0.204
AAGAGTAC	-0.118
AATAGAGC	0.0603
GGCCCGGA	0.336
AAGCATCA	0.0281
ACCACTTC	0.00985
AACGCAAT	0.115
CGGTGTAG	-0.0315
ATAGTACA	0.0326
AGCTGCGC	0.0824
TAAATCTA	-0.0322
AGGGAAGG	-0.211
CCATTCTC	0.00325
ACTTGCGC	0.0195
ATACGTGA	-0.134
CCCAGCCA	0.0134
ATGTCTAG	-0.064
CCTCGGTA	-0.105

Sequence	PBM E-score
ACGTCTTC	-0.0882
ACCTATGC	-0.124
CGCGTTAG	-0.0137
ATGAACTA	0.0325
GATGGTGC	-0.341
AGGTGCTA	-0.16
AGGCCGGC	0.291
CCCGTTAG	0.00367
ATATGAAT	0.172
ACCCCAGC	0.0399
ATTACGAA	-0.115
CCCGACAG	0.0838
ACGCAAAC	-0.165
CGGCATAG	0.183
TATTTTAA	0.0515
CCCATCAG	-0.2
GAGTGATC	0.0656
ATTTACGA	0.0189
ATCTGACC	0.168
TAGGCAGA	-0.089
GCTGGGCA	-0.0838
AGGTCCTC	0.0684
AGCGTGAA	-0.352
ACCAACTA	-0.017
TCCGGAGA	0.44

Sequence	PBM E-score
CATCATCG	0.0761
CCACCTAG	-0.0573
AAGACCGC	-0.0804
CTGTAGAC	-0.0935
ATACTCGA	-0.103
CGCGCGCG	0.372
TCGCTGCA	-0.112
CTGGATTA	0.267
TTACACAA	-0.0614
CGCCGTCA	0.195
ACCCTTCT	-0.177
TCCGCTAA	0.277
CGCTGTAC	-0.102
ACATGGGC	0.144
CACGGAAG	0.386
GAGCGCGA	0.213
AACGTAGC	-0.31
ATGACTTA	-0.113
GCTGCTCC	0.131
